In the supplement of paper PMC12645437, “Orthogonal IMiD-Degron Pairs Induce Selective Protein Degradation in Cells” (ACS Chemical Biology, 2025):
The list shows a part of the results.

B1: Q9UKT9 (peptide)
chain: FECNQCGAIFTQKGNLLRHIKL
B2: Q9UKT9 (peptide)
chain: LACNQCGFTCTQKGNLLRHIKL
B3: Q9UKT9 (peptide)
chain: FLCEQCGADFTQKGNLLRHIKL
B4: Q9UKT9 (peptide)
chain: LYCNQCGFGCTQKGNLLRHIKL
B5: Q9UKT9 (peptide)
chain: FSCDQCGASFTQKGNLLRHIKL
B6: Q9UKT9 (peptide)
chain: FRCDVCGANFTQKGNLLRHIKL
B7: Q9UKT9 (peptide)
chain: FGCSVCGHCFTQKGNLLRHIKL
B8: Q9UKT9 (peptide)
chain: FFCPVCGAAFTQKGNLLRHIKL
B9: Q9UKT9 (peptide)
chain: FMCEQCGAGFTQKGNLLRHIKL
B10: Q9UKT9 (peptide)
chain: FGCSVCGHTFTQKGNLLRHIKL
B11: Q9UKT9 (peptide)
chain: FSCDVCGATFTQKGNLLRHIKL
B12: Q9UKT9 (peptide)
chain: FRCSVCGHFFTQKGNLLRHIKL
B13: Q9UKT9 (peptide)
chain: FSCDVCGAWFTQKGNLLRHIKL
B14: Q9UKT9 (peptide)
chain: FQCEICGANFTQKGNLLRHIKL
B15: Q9UKT9 (peptide)
chain: FWCDQCGAAFTQKGNLLRHIKL
B16: Q9UKT9 (peptide)
chain: FACNQCGRHFTQKGNLLRHIKL
B17: Q9UKT9 (peptide)
chain: FQCNVCGAYFTQKGNLLRHIKL
B18: Q9UKT9 (peptide)
chain: FNCEQCGADFTQKGNLLRHIKL
B19: Q9UKT9 (peptide)
chain: FECDICGAAFTQKGNLLRHIKL
B20: Q9UKT9 (peptide)
chain: FKCNICGALFTQKGNLLRHIKL
B21: Q9UKT9 (peptide)
chain: LLCNQCGFACTQKGNLLRHIKL
B22: Q9UKT9 (peptide)
chain: FYCEICGAPFTQKGNLLRHIKL
B23: Q9UKT9 (peptide)
chain: LVCPICGFVCTQKGNLLRHIKL
B24: Q9UKT9 (peptide)
chain: FHCNICGAPFTQKGNLLRHIKL
B25: Q9UKT9 (peptide)
chain: FACEICGRIFTQKGNLLRHIKL
B26: Q9UKT9 (peptide)
chain: LWCNQCGFWCTQKGNLLRHIKL
B27: Q9UKT9 (peptide)
chain: FTCPICGHWFTQKGNLLRHIKL
B28: Q9UKT9 (peptide)
chain: LVCNQCGFPCTQKGNLLRHIKL
B29: Q9UKT9 (peptide)
chain: FKCPICGHEFTQKGNLLRHIKL
B30: Q9UKT9 (peptide)
chain: FSCNQCGRAFTQKGNLLRHIKL
B31: Q9UKT9 (peptide)
chain: FKCPICGRSFTQKGNLLRHIKL
B32: Q9UKT9 (peptide)
chain: FMCNQCGHCFTQKGNLLRHIKL
B33: Q9UKT9 (peptide)
chain: FQCEQCGAPFTQKGNLLRHIKL
B34: Q9UKT9 (peptide)
chain: FQCEICGAVFTQKGNLLRHIKL
B35: Q9UKT9 (peptide)
chain: FACPQCGAAFTQKGNLLRHIKL
B36: Q9UKT9 (peptide)
chain: FRCPVCGAMFTQKGNLLRHIKL
B37: Q9UKT9 (peptide)
chain: FKCDICGAPFTQKGNLLRHIKL
B38: Q9UKT9 (peptide)
chain: FRCEICGHSFTQKGNLLRHIKL
B39: Q9UKT9 (peptide)
chain: FLCNICGADFTQKGNLLRHIKL
B40: Q9UKT9 (peptide)
chain: FECEICGHQFTQKGNLLRHIKL
B41: Q9UKT9 (peptide)
chain: FNCNICGAQFTQKGNLLRHIKL
B42: Q9UKT9 (peptide)
chain: FGCEVCGAKFTQKGNLLRHIKL
B43: Q9UKT9 (peptide)
chain: FSCPICGREFTQKGNLLRHIKL
B44: Q9UKT9 (peptide)
chain: FFCEICGAVFTQKGNLLRHIKL
B45: Q9UKT9 (peptide)
chain: FECPICGHGFTQKGNLLRHIKL
B46: Q9UKT9 (peptide)
chain: FLCEICGRKFTQKGNLLRHIKL
B47: Q9UKT9 (peptide)
chain: FTCNQCGAMFTQKGNLLRHIKL
B48: Q9UKT9 (peptide)
chain: FCCDVCGAVFTQKGNLLRHIKL
B49: Q9UKT9 (peptide)
chain: FHCNQCGHKFTQKGNLLRHIKL
B50: Q9UKT9 (peptide)
chain: FCCPICGRRFTQKGNLLRHIKL

Molecular target: no compound (DMSO)
Assay: log2 fold change of degron read counts, EGFP-low vs EGFP+ sorted cells; higher = lower degron-EGFP level without compound (poor expression or instability)
Details: compound: DMSO control; 18 h
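Further: jurkat cells carrying a lentiviral library of mutant zinc finger degrons fused to EGFP plus mCherry, mCherry+ cells FACS sorted, degron abundance counted by next-generation sequencing.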

Row | Sequence | log2 fold change of degron read counts
1 | B1 | -1.28
2 | B2 | -0.00727
3 | B3 | -1.23
4 | B4 | 1.18
5 | B5 | -3.5
6 | B6 | -1.5
7 | B7 | 0.164
8 | B8 | 0.271
9 | B9 | -2.58
10 | B10 | -0.661
11 | B11 | -1.51
12 | B12 | 0.28
13 | B13 | -1.68
14 | B14 | -1.13
15 | B15 | -0.506
16 | B16 | -0.0468
17 | B17 | -0.191
18 | B18 | -2.38
19 | B19 | -2.01
20 | B20 | -1.32
21 | B21 | 0.246
22 | B22 | -0.689
23 | B23 | 1.31
24 | B24 | -0.0573
25 | B25 | -0.412

Row | Sequence | log2 fold change of degron read counts
26 | B26 | 2.8
27 | B27 | -0.136
28 | B28 | 0.368
29 | B29 | -0.623
30 | B30 | -0.785
31 | B31 | -0.0858
32 | B32 | -0.242
33 | B33 | -1.24
34 | B34 | -1.92
35 | B35 | -0.791
36 | B36 | -0.0776
37 | B37 | -0.722
38 | B38 | -0.973
39 | B39 | -1.7
40 | B40 | -2.81
41 | B41 | -1.14
42 | B42 | -1.5
43 | B43 | -0.429
44 | B44 | -0.206
45 | B45 | -0.793
46 | B46 | -1.7
47 | B47 | -0.447
48 | B48 | -1.34
49 | B49 | 0.157
50 | B50 | -0.463
